Assay results published in the supplement of paper PMC4967469.
A lower IC50 marks a more sensitive line; where the fit passes the top or lowest dose, that dose stands as a limit. AUC sums up the same curve from the lowest dose to the 256-fold higher top dose; values near 1 show little effect. For part of these data: Any top dose called inferred was calculated from the reported fits. For part of these data: Where an entry number is given, a second screen of the drug exists; the two often differ.

Columns and labels:
Test in all cases: Viability of human cancer cell lines after 72 h of drug (GDSC screen)
AR-42 = compound: CC(C)[C@H](C(=O)Nc1ccc(C(=O)NO)cc1)c1ccccc1 [AR-42]; details: top dose 5.12 µM; top dose inferred
Procedure: (§1)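 Human cancer cell lines in 384-well plates, medium with 10% serum, drug for 72 h over a 256-fold dose range (nine 2-fold or five 4-fold steps up to the top dose). Adherent lines were fixed and stained with the nucleic acid dye Syto60, suspension lines read with resazurin; signal relative to control wells, capped at 0 and 100%. One two-parameter sigmoid per drug and line, fitted in a mixed model over all curves with the slope shared within a line.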

GDC0941 = compound: CS(=O)(=O)N1CCN(Cc2cc3nc(-c4cccc5[nH]ncc45)nc(N4CCOCC4)c3s2)CC1 [GDC0941]; details: top dose 4 µM; screen: GDSC drug entry 1527; top dose inferred
Procedure: as §1

SB 216763 = compound: Cn1cc(C2=C(c3ccc(Cl)cc3Cl)C(=O)NC2=O)c2ccccc21 [SB 216763]; details: top dose 10 µM; top dose inferred
Procedure: as §1

Pazopanib = compound: Cc1ccc(Nc2nccc(N(C)c3ccc4c(C)n(C)nc4c3)n2)cc1S(N)(=O)=O [Pazopanib]; details: top dose 8 µM
Procedure: as §1

CEP-701 = compound: C[C@]12O[C@H](C[C@]1(O)CO)n1c3ccccc3c3c4c(c5c6ccccc6n2c5c31)CNC4=O [CEP-701]; details: top dose 2 µM; top dose inferred
Procedure: as §1

MG-132 = compound: CC(C)C[C@@H](C=O)NC(=O)[C@H](CC(C)C)NC(=O)[C@H](CC(C)C)NC(=O)OCc1ccccc1 [MG-132]; details: top dose 1 µM
Procedure: as §1

Cell Line | AUC (AR-42) | IC50 (AR-42) [µM] | AUC (GDC0941) | IC50 (GDC0941) [µM] | AUC (SB 216763) | IC50 (SB 216763) [µM] | AUC (Pazopanib) | IC50 (Pazopanib) [µM] | AUC (CEP-701) | IC50 (CEP-701) [µM] | AUC (MG-132) | IC50 (MG-132) [µM]
8-MG-BA (glioma, adherent) | 0.54 | 0.408 | 0.656 | 0.655 | 0.923 | > 10 | 0.943 | > 8 | 0.493 | 0.12 | 0.652 | 0.16
A253 (head and neck, adherent) | 0.86 | 4.11 | 0.988 | > 4 | 0.986 | > 10 | 0.858 | 6.29 | 0.875 | 1.88 | 0.67 | 0.183
A388 (skin, adherent) | 0.82 | 3.53 | 0.712 | 1.1 | 0.977 | > 10 | 0.894 | > 8 | 0.886 | > 2 | 0.55 | 0.0871
A498 (kidney, adherent) | 0.895 | > 5.12 | 0.707 | – | 0.886 | > 10 | 0.971 | > 8 | 0.575 | – | 0.936 | > 1
AM-38 (glioma, semi-adherent) | 0.639 | 0.784 | 0.968 | > 4 | 0.988 | > 10 | 0.986 | > 8 | 0.863 | 1.79 | 0.963 | > 1
AMO-1 (haematopoietic neoplasm, suspension) | 0.403 | 0.181 | – | – | 0.991 | > 10 | 0.95 | > 8 | 0.52 | 0.141 | 0.641 | 0.144
ARH-77 (myeloma, suspension) | 0.359 | 0.132 | 0.725 | 1.06 | 0.982 | > 10 | 0.967 | > 8 | 0.782 | 0.803 | 0.727 | 0.268
ATN-1 (T-cell lymphoblastic leukaemia, suspension) | 0.397 | 0.171 | 0.719 | 0.996 | 0.983 | > 10 | 0.943 | > 8 | 0.302 | 0.0363 | 0.977 | > 1
BB30-HNC (head and neck, adherent) | 0.677 | 0.987 | – | – | 0.982 | > 10 | 0.905 | > 8 | 0.663 | 0.35 | 0.742 | 0.301
BE2-M17 (neuroblastoma, adherent) | 0.66 | 0.901 | 0.893 | > 4 | 0.97 | > 10 | 0.987 | > 8 | 0.656 | 0.343 | 0.836 | 0.688
BT-474 (breast, adherent) | 0.769 | 2.17 | 0.768 | 1.68 | 0.982 | > 10 | 0.955 | > 8 | 0.842 | 1.66 | 0.961 | > 1
BV-173 (chronic myeloid leukaemia, suspension) | 0.318 | 0.107 | 0.804 | 1.72 | 0.908 | > 10 | 0.973 | > 8 | 0.314 | 0.0407 | 0.986 | > 1
Becker (glioma, adherent) | 0.929 | > 5.12 | 0.679 | 0.847 | 0.983 | > 10 | 0.905 | > 8 | 0.757 | 0.767 | 0.812 | 0.617
C2BBe1 (large intestine, adherent) | 0.667 | 1 | 0.816 | 2.6 | 0.984 | > 10 | 0.984 | > 8 | 0.679 | 0.427 | 0.71 | 0.268
CCRF-CEM (lymphoblastic leukaemia, suspension) | 0.285 | 0.0889 | 0.774 | 1.32 | 0.986 | > 10 | 0.988 | > 8 | 0.376 | 0.0603 | 0.761 | 0.303
CESS (acute myeloid leukaemia, suspension) | 0.254 | 0.0718 | 0.715 | 0.913 | 0.988 | > 10 | 0.984 | > 8 | 0.818 | 0.926 | 0.672 | 0.174
CL-11 (large intestine, adherent) | 0.892 | > 5.12 | – | – | 0.957 | > 10 | 0.983 | > 8 | 0.834 | 1.54 | 0.92 | > 1
CMK (acute myeloid leukaemia, suspension) | 0.242 | 0.0671 | 0.806 | 1.67 | 0.987 | > 10 | 0.978 | > 8 | 0.585 | 0.205 | 0.692 | 0.195
COLO-320-HSR (large intestine, suspension) | 0.475 | 0.276 | 0.757 | 1.22 | 0.991 | > 10 | 0.982 | > 8 | 0.902 | > 2 | 0.917 | > 1
COLO-668 (small cell lung carcinoma, adherent) | 0.61 | 0.641 | 0.929 | > 4 | 0.989 | > 10 | 0.981 | > 8 | 0.981 | > 2 | 0.981 | > 1
COLO-824 (breast, adherent) | 0.657 | 0.883 | 0.867 | 3.74 | 0.987 | > 10 | 0.956 | > 8 | 0.899 | > 2 | 0.922 | > 1
COR-L95 (small cell lung carcinoma, adherent) | 0.613 | 0.691 | 0.915 | > 4 | 0.987 | > 10 | 0.984 | > 8 | 0.856 | > 2 | 0.952 | > 1
CPC-N (small cell lung carcinoma, suspension) | 0.43 | 0.202 | 0.635 | 0.612 | 0.971 | > 10 | 0.985 | > 8 | 0.608 | 0.255 | 0.631 | 0.149

Cell Line | AUC (AR-42) | IC50 (AR-42) [µM] | AUC (GDC0941) | IC50 (GDC0941) [µM] | AUC (SB 216763) | IC50 (SB 216763) [µM] | AUC (Pazopanib) | IC50 (Pazopanib) [µM] | AUC (CEP-701) | IC50 (CEP-701) [µM] | AUC (MG-132) | IC50 (MG-132) [µM]
Calu-6 (lung adenocarcinoma, adherent) | 0.5 | 0.319 | – | – | 0.924 | > 10 | 0.982 | > 8 | 0.811 | 1.26 | 0.819 | 0.678
EJM (lymphoid neoplasm, semi-adherent) | 0.364 | 0.144 | – | – | 0.992 | > 10 | 0.988 | > 8 | 0.612 | 0.241 | 0.77 | 0.322
GCIY (stomach, adherent) | 0.42 | 0.188 | – | – | 0.979 | > 10 | 0.929 | > 8 | 0.886 | > 2 | 0.838 | 0.805
GRANTA-519 (B-cell lymphoma, suspension) | 0.705 | 1.13 | – | – | 0.991 | > 10 | 0.977 | > 8 | 0.565 | 0.185 | 0.846 | 0.621
JJN-3 (haematopoietic neoplasm, suspension) | 0.377 | 0.157 | – | – | 0.991 | > 10 | 0.991 | > 8 | 0.5 | 0.125 | 0.651 | 0.15
KMS-12-BM (myeloma, suspension) | 0.275 | 0.0841 | – | – | 0.981 | > 10 | 0.982 | > 8 | 0.253 | 0.0287 | 0.806 | 0.407
KURAMOCHI (ovary, adherent) | 0.607 | 0.659 | – | – | 0.982 | > 10 | 0.924 | > 8 | 0.889 | > 2 | 0.856 | > 1
L-363 (myeloma, suspension) | 0.449 | 0.237 | – | – | 0.988 | > 10 | 0.973 | > 8 | 0.464 | 0.101 | 0.707 | 0.218
LB647-SCLC (small cell lung carcinoma, semi-adherent) | 0.923 | > 5.12 | – | – | 0.985 | > 10 | 0.974 | > 8 | 0.668 | 0.391 | 0.872 | > 1
MFM-223 (breast, adherent) | 0.595 | 0.582 | – | – | 0.979 | > 10 | 0.934 | > 8 | 0.733 | 0.573 | 0.952 | > 1
MOLM-13 (acute myeloid leukaemia, suspension) | 0.267 | 0.073 | – | – | 0.981 | > 10 | 0.723 | 2.04 | 0.089 | < 0.00781 | 0.767 | 0.349
MSTO-211H (mesothelioma, adherent) | 0.621 | 0.664 | – | – | 0.991 | > 10 | 0.971 | > 8 | 0.684 | 0.387 | 0.948 | > 1
MY-M12 (leukaemia, suspension) | 0.252 | 0.0559 | – | – | 0.981 | > 10 | 0.635 | 1.24 | 0.563 | 0.19 | 0.727 | 0.305
NB14 (neuroblastoma, adherent) | – | – | 0.914 | > 4 | 0.911 | > 10 | 0.989 | > 8 | 0.268 | 0.0286 | 0.987 | > 1
NB69 (neuroblastoma, adherent) | 0.444 | 0.229 | – | – | 0.922 | > 10 | 0.985 | > 8 | 0.7 | 0.424 | 0.801 | 0.423
NCI-H23 (lung adenocarcinoma, adherent) | 0.622 | 0.691 | – | – | 0.974 | > 10 | 0.976 | > 8 | 0.885 | > 2 | 0.876 | 0.971
NCI-H69 (small cell lung carcinoma, suspension) | – | – | 0.665 | 0.761 | 0.986 | > 10 | 0.917 | > 8 | 0.801 | 1.1 | 0.629 | 0.148
NCI-H510A (small cell lung carcinoma, semi-adherent) | 0.262 | 0.0718 | – | – | 0.974 | > 10 | 0.924 | > 8 | 0.811 | 0.959 | 0.858 | 0.715
NCI-H1963 (small cell lung carcinoma, suspension) | 0.886 | 4.39 | – | – | 0.991 | > 10 | 0.991 | > 8 | 0.681 | 0.372 | 0.829 | 0.517
NOMO-1 (acute myeloid leukaemia, suspension) | 0.437 | 0.211 | – | – | 0.973 | > 10 | 0.958 | > 8 | 0.412 | 0.0692 | 0.898 | > 1
OVCAR-4 (ovary, adherent) | 0.794 | 3.8 | – | – | 0.973 | > 10 | 0.827 | > 8 | 0.821 | > 2 | 0.631 | 0.172
U-87-MG (glioma, adherent) | 0.841 | 4.52 | – | – | 0.977 | > 10 | 0.975 | > 8 | 0.885 | > 2 | 0.972 | > 1
VAL (B-cell lymphoma, suspension) | 0.278 | 0.0747 | – | – | 0.987 | > 10 | 0.882 | > 8 | 0.546 | 0.167 | 0.771 | 0.386
